In all, about 33,000 sequences were measured (“E-score (-0.5 to 0.5)”: median about -0.054, highest 2% from about 0.39 on). The list shows a part of the results.
Target: Ylr278c (UniProt Q05854)
Assay: PBM E-score (8-mer binding enrichment) (E-score (-0.5 to 0.5)); higher = stronger / more preferred TF binding; most listed sequences are background and not binding sites
Conditions: protein concentration: 200 nM; construct: GST-DNA-binding domain
Procedure, shortened: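 E-scores (a modified Wilcoxon-Mann-Whitney statistic) were assigned by the Universal PBM Analysis Suite to every ungapped eight-base word pooled with its reverse complement. The input came from universal all-10-mer Agilent arrays made double-stranded by primer extension and probed with GST-tagged yeast transcription factors at about 100-200 nM. Fluorescent anti-GST detected bound protein, and masliner normalised the scans.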

Sequence	PBM E-score
CCATTTCG	0.0464
GACTCGGA	0.4
CCGATTAG	0.339
AACATAAC	-0.0924
ATCCTGGG	-0.23
CCATTTAG	-0.0672
CACCTGGA	-0.182
TCTTGTAA	-0.0214
CTCGGTTA	0.0916
ACGGAAGG	0.117
CTATCAAA	-0.0829
CTCCGGGC	0.448
CCCCGAGC	0.219
TCAAGCCA	-0.0992
AGATGCTG	-0.195
GCGTGCCC	-0.0595
GAAAGGTA	-0.0464
CCTACGAG	-0.251
CCTAGAGA	-0.235
GCAGCTGC	0.307
TCGGCGCA	0.233
AAAAACCC	0.147
CTAGTGTA	-0.216
GATGCTCC	0.278
ACGGAAGT	0.29

Sequence	PBM E-score
CGGATGTC	0.4
CCGTCACC	0.167
ACATCAGG	-0.0864
AGAGGGCT	-0.368
AACGTTCT	-0.0505
ATGCCATA	-0.301
ATTTAGGG	0.109
AGGATACT	-0.0649
ACGCATTA	-0.216
AGAATAGA	-0.147
ACCAGCAT	-0.138
ATTGTTTG	-0.112
TCAGTTCA	-0.185
GTGTGAAC	-0.0885
AACCCTGT	-0.219
ACTTGCAA	-0.111
AAGGTAAC	-0.0766
TGGGCACA	-0.163
ATGGGCAA	-0.118
GATTGCTA	-0.156
AGCCCTTG	-0.276
TAGATCGA	-0.0704
GGGAGAAC	-0.0233
AAAAAAGC	-0.215
CACTATCC	0.0508

Sequence	PBM E-score
CCGATGGC	0.321
GATCGGCA	0.173
TCGACAGA	-0.274
CGCGACCC	0.028
TGCTAAAA	-0.158
CAATTCTG	-0.247
GCTGAATA	-0.258
AATGGTCA	-0.0887
ACAAAAAT	-0.0086
AACACCAT	-0.0928
AGAAGTGA	-0.158
ATCTTAGC	-0.144
AACGCAAA	0.0725
ATAACGCG	0.179
GCATTAAA	-0.212
CGGCGTAC	0.316
GATAGCGC	0.0273
AGATGGCC	0.0298
ACTACTCG	0.0653
CCGAAGGC	0.214
GGATGAAA	0.14
CATGGAAC	-0.206
CTTCTAGC	-0.12
CCACTGCC	-0.153
CTCAAGAA	-0.0162

Sequence	PBM E-score
AAGCCGCC	0.112
ACTAAGGG	-0.0488
AGAGTACC	-0.18
AGCAGTTA	-0.0394
CTTCTCTA	-0.154
AATACCTC	-0.0696
CATAGTCC	0.0938
AGAACCAT	-0.132
GATCTGCA	0.0556
TAATTTAA	0.0165
ACGCAAGC	-0.104
TCTTCTAA	-0.0979
ATGATCAC	-0.0937
AACATATT	0.00185
GGTCATTA	-0.14
CACCGTGA	0.0623
ACGCCGCT	0.224
ACCCGCAG	0.189
AAACCTAC	-0.102
CCCATGGA	-0.0689
CATTGAAA	-0.0316
GCCGCTAA	0.254
AGCTGTAC	0.0264
ATTCATGG	-0.123
ACCTGCAA	-0.216

Sequence	PBM E-score
CAATTCTA	-0.262
CGCCAAGA	-0.119
ATACATGA	-0.234
AAGTTCTA	-0.0869
CGACCTTA	0.0776
AATAGGTA	-0.174
AAAACCAT	-0.0695
AGATGTGC	0.0163
TTATTGAA	-0.175
CGGTGGCA	-0.0334
GCACCACA	-0.162
TAACGAGA	-0.152
AGCACCAG	-0.179
CCGCCTCC	0.283
ACGCCAGG	0.0083
AACTTACT	-0.115
GGAATGCC	0.239
TCATCTCA	0.00661
CCGATGTC	0.26
CAGCTAAC	-0.315
ACACTGGG	-0.103
ATATCTTA	-0.0308
ACCTAGGA	-0.0515
GCCGGCAA	0.391
AAAGGGAG	-0.264

Sequence	PBM E-score
CTATTGTA	0.0395
CGCTTGTA	0.102
GAGTCACC	-0.0665
ATAATTTA	0.109
ACGTCCAG	-0.183
AGAAGACT	-0.252
CATTTGCG	0.181
AGTGCGAA	0.0477
CTAGCCAA	-0.0745
AATACTCT	-0.0506
ATCCCTCA	-0.0958
TACGTTAA	-0.189
AGAATCTC	-0.0318
CGTACCCA	-0.142
GCTCATTA	-0.0644
ATTACGGC	0.133
GTTGGAAA	-0.0213
ATAGGAAC	-0.105
GGTATACA	0.0107
CCGGCCCG	0.384
AAACAGAG	-0.22
ATACCTTG	-0.236
AGGCATAT	-0.203
GGGTTCCA	-0.032
ACTGCAGG	-0.197

Sequence	PBM E-score
GAGCCCTC	-0.0813
GTGCTATA	-0.148
CTTCAAGC	-0.283
CAGAGTTA	-0.125
CGACCGTA	0.00777
ACGATTGA	-0.0541
CCACCCGA	0.0128
ATAAGCCC	-0.0246
GGATACGA	-0.164
ATGATAAA	0.0721
CCCCAAAA	-0.0117
ATATACGG	0.136
CATCTAGG	-0.159
CTTCGTAA	-0.187
CCTAATAA	-0.175
CCTCAGGA	-0.18
AAAACCCA	0.0359
GCTCGCAA	-0.18
ACTGGGTG	-0.205
ACTCTTTC	-0.0234
ATCTAGAA	-0.162
CCTTCTGA	-0.269
ACTCGATG	-0.229
CAGGCCTG	0.156
CGCAGGGA	-0.0224

Sequence	PBM E-score
AGTGTAGA	-0.317
TACCCCTA	-0.125
ATATCAAA	0.0466
TAGATCTA	-0.231
AGCCGTTC	-0.0289
CGCAAGCG	-0.177
GGTCGGAC	0.355
CTGCATTC	-0.063
CAACACAC	-0.139
AAGTCGTC	-0.134
GACAGAGC	-0.112
AACTGGGA	0.0332
GCTACCCA	-0.196
AAAAAGGG	0.0153
AGGGAAAA	-0.0563
AGAGGGTC	-0.193
ACTTACCG	0.256
CACCTGTA	-0.167
GGAGGCAC	0.0398
ATACAAAG	0.0981
ACACAACG	0.0348
ACTAGACC	0.0274
AACTCGCC	0.0959
ATCGGTGC	0.154
AATCATTC	-0.0149

Sequence	PBM E-score
GCACACGA	-0.138
CGAGGGCA	-0.0958
ATCGCTAA	-0.0953
GAATAGAA	0.0463
AGACCGAA	0.169
CTGCTAAG	-0.166
ACGCATGG	-0.102
GATATCGC	0.0418
ACGTACGG	0.0794
GTGGGTCA	-0.256
AAGGCAGT	-0.169
AAGGCATA	-0.176
AAGCCGTA	0.0173
GTCTCCTA	-0.166
CTGAGGCC	0.115
TGCTAGAA	-0.153
ACAAAGAA	-0.00298
GAATAAGC	-0.0831
GATCGGAA	0.408
